Experimental data as given in the supplement of paper PMC12067230.
This is a noisy data set.

assay: amyloid nucleation score relative to library mode (yeast Sup35 reporter selection) (log enrichment difference); higher = more amyloid nucleation; sequences are the first 22 residues of the Bri2 peptide extended by up to 12 random residues; conditions: random library (experiment): 1;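 active = nucleation score significantly above 0 at FDR 0.05; inactive = not significantly above 0 or absent from output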
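Further: [psi-pin-] Saccharomyces cerevisiae expressing SupN fusions, induced by 100 µM Cu2SO4, selected 7 d at 30 °C without adenine and uracil, scored by deep sequencing of output versus input.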

Row | Sequence | amyloid nucleation score
1 | EASNCFAIRHFENKFAVETLICMYCSRSEGCVNT | 5.43
2 | EASNCFAIRHFENKFAVETLICMYDRCMDCLLLT | -0.146
3 | EASNCFAIRHFENKFAVETLICMYFCRSVAHGLG | inactive
4 | EASNCFAIRHFENKFAVETLICMYGMSHWRWNAG | 1.69
5 | EASNCFAIRHFENKFAVETLICMYGRLYQYCHNI | inactive
6 | EASNCFAIRHFENKFAVETLICMYGVGALTDMAS | -0.505
7 | EASNCFAIRHFENKFAVETLICMYLKMPWYSLWN | inactive
8 | EASNCFAIRHFENKFAVETLICMYMRPYLCRDVS | 3.96
9 | EASNCFAIRHFENKFAVETLICMYSRYRIHVIRC | inactive
10 | EASNCFAIRHFENKFAVETLICMYSVWSRAGRCV | inactive
11 | EASNCFAIRHFENKFAVETLICMYTAKRTQVILP | inactive
12 | EASNCFAIRHFENKFAVETLICNA | inactive
13 | EASNCFAIRHFENKFAVETLICNAACGRESREAA | inactive
14 | EASNCFAIRHFENKFAVETLICNACRRGKQGLRT | inactive
15 | EASNCFAIRHFENKFAVETLICNACSIFDYTRHL | 8.29
16 | EASNCFAIRHFENKFAVETLICNADSLCPSQVDD | 1.35
17 | EASNCFAIRHFENKFAVETLICNAHRSRQNRTVM | inactive
18 | EASNCFAIRHFENKFAVETLICNAKVTDHMRMEG | inactive
19 | EASNCFAIRHFENKFAVETLICNALANRYSDKAV | inactive
20 | EASNCFAIRHFENKFAVETLICNALSLQSCSALR | 6.11
21 | EASNCFAIRHFENKFAVETLICNAMFP | 5.58
22 | EASNCFAIRHFENKFAVETLICNANPEM | inactive

Row | Sequence | amyloid nucleation score
23 | EASNCFAIRHFENKFAVETLICNARFVLVLTHST | inactive
24 | EASNCFAIRHFENKFAVETLICNARKCPYVVQVS | inactive
25 | EASNCFAIRHFENKFAVETLICNATKVVRGWQVL | inactive
26 | EASNCFAIRHFENKFAVETLICNAYEPVLWLVRA | -0.219
27 | EASNCFAIRHFENKFAVETLICNAYMICYRPRWV | inactive
28 | EASNCFAIRHFENKFAVETLICNCAQKPRQLLAG | inactive
29 | EASNCFAIRHFENKFAVETLICNCDSVC | inactive
30 | EASNCFAIRHFENKFAVETLICNCLLSACLFLWW | 0.833
31 | EASNCFAIRHFENKFAVETLICNCPMFNIAPAVL | 6.54
32 | EASNCFAIRHFENKFAVETLICNCQGAGGYRVAT | 3.37
33 | EASNCFAIRHFENKFAVETLICNCVDKLGRDSAR | 7.67
34 | EASNCFAIRHFENKFAVETLICNDGDNGHFVRLL | 0.262
35 | EASNCFAIRHFENKFAVETLICNDGTYCSIRQAQ | 0.703
36 | EASNCFAIRHFENKFAVETLICNDLVLPTAIVTP | inactive
37 | EASNCFAIRHFENKFAVETLICNDSGCLQGRATW | inactive
38 | EASNCFAIRHFENKFAVETLICNDSRTMRQRGAE | inactive
39 | EASNCFAIRHFENKFAVETLICNDVSVVVGRWRW | 6.46
40 | EASNCFAIRHFENKFAVETLICNDVWHVQVLWGH | 7.01
41 | EASNCFAIRHFENKFAVETLICNEMWNWSMLWMC | -0.00976
42 | EASNCFAIRHFENKFAVETLICNERCRVRIICST | inactive
43 | EASNCFAIRHFENKFAVETLICNFSQSQEENFWR | 8.02
44 | EASNCFAIRHFENKFAVETLICNFSRWFRSRTYR | inactive

same assay, conditions: random library (experiment): 2

Row | Sequence | amyloid nucleation score
45 | EASNCFAIRHFENKFAVETLICMYEGTFSLSVLH | inactive
46 | EASNCFAIRHFENKFAVETLICMYIG | 2.27
47 | EASNCFAIRHFENKFAVETLICMYKIIWCIKYDM | inactive
48 | EASNCFAIRHFENKFAVETLICMYLCSMTLWKQM | inactive
49 | EASNCFAIRHFENKFAVETLICMYLVVYALVHCR | inactive
50 | EASNCFAIRHFENKFAVETLICMYPGNHNTRLCE | inactive
51 | EASNCFAIRHFENKFAVETLICMYR | inactive
52 | EASNCFAIRHFENKFAVETLICNAGSL | -0.438
53 | EASNCFAIRHFENKFAVETLICNAI | inactive
54 | EASNCFAIRHFENKFAVETLICNAIGACVLRKAL | inactive
55 | EASNCFAIRHFENKFAVETLICNAKHF | inactive
56 | EASNCFAIRHFENKFAVETLICNARSAERFKVMC | 0.741
57 | EASNCFAIRHFENKFAVETLICNASVNSSVYVRV | 3.95
58 | EASNCFAIRHFENKFAVETLICNCAGSICGSFR | 8.86
59 | EASNCFAIRHFENKFAVETLICNCCIFYVWCVVS | 2.15
60 | EASNCFAIRHFENKFAVETLICNCEGLDDLTAHR | 3.27
61 | EASNCFAIRHFENKFAVETLICNCEGSDGLWVVC | -0.239
62 | EASNCFAIRHFENKFAVETLICNCFMPVFVFRDG | 7.77
63 | EASNCFAIRHFENKFAVETLICNCGFFWRTDVSV | 7.3
64 | EASNCFAIRHFENKFAVETLICNCHSSQSVSCD | 6.41
65 | EASNCFAIRHFENKFAVETLICNCL | 7.93
66 | EASNCFAIRHFENKFAVETLICNCLREERPSFRG | 6.31
67 | EASNCFAIRHFENKFAVETLICNCMYFNYSMILC | 4.68

Row | Sequence | amyloid nucleation score
68 | EASNCFAIRHFENKFAVETLICNCPIVLRGVFVV | inactive
69 | EASNCFAIRHFENKFAVETLICNCQ | 7.42
70 | EASNCFAIRHFENKFAVETLICNCQVSCFFSVTQ | 8.61
71 | EASNCFAIRHFENKFAVETLICNCS | 5.19
72 | EASNCFAIRHFENKFAVETLICNCTLCMELSTIS | 7.84
73 | EASNCFAIRHFENKFAVETLICNCTLRWLSGSCA | inactive
74 | EASNCFAIRHFENKFAVETLICNCVVYADTWCWR | 7.2
75 | EASNCFAIRHFENKFAVETLICND | 1.27
76 | EASNCFAIRHFENKFAVETLICNDGLWILVGRFV | inactive
77 | EASNCFAIRHFENKFAVETLICNDKFTEYINC | 1.37
78 | EASNCFAIRHFENKFAVETLICNDLHYGYPLWTE | 7.27
79 | EASNCFAIRHFENKFAVETLICNDLNTSILSNQM | 4.45
80 | EASNCFAIRHFENKFAVETLICNDLPG | inactive
81 | EASNCFAIRHFENKFAVETLICNDVSLLY | 4.5
82 | EASNCFAIRHFENKFAVETLICNECMFSVSVGDG | inactive
83 | EASNCFAIRHFENKFAVETLICNENSVSGDITSM | inactive
84 | EASNCFAIRHFENKFAVETLICNESYYVLKGCKA | inactive
85 | EASNCFAIRHFENKFAVETLICNEWDLTEQNPET | -0.148
86 | EASNCFAIRHFENKFAVETLICNEYDRSLVYHKI | inactive
87 | EASNCFAIRHFENKFAVETLICNFG | 5.5
88 | EASNCFAIRHFENKFAVETLICNFI | 7.28
89 | EASNCFAIRHFENKFAVETLICNFLQHLIGPSNQ | 6.07
90 | EASNCFAIRHFENKFAVETLICNFRTE | 7.53

same assay, conditions: random library (experiment): 3

Row | Sequence | amyloid nucleation score
91 | EASNCFAIRHFENKFAVETLICMYGNGRVCAGMS | inactive
92 | EASNCFAIRHFENKFAVETLICMYIRLD | inactive
93 | EASNCFAIRHFENKFAVETLICMYKTWWIWRLKA | inactive
94 | EASNCFAIRHFENKFAVETLICMYKVARWQYRYV | inactive
95 | EASNCFAIRHFENKFAVETLICMYPTCNNISVMY | 6.5
96 | EASNCFAIRHFENKFAVETLICMYRNNTYTVPEA | 4.36
97 | EASNCFAIRHFENKFAVETLICMYRVKTMHRSKA | inactive
98 | EASNCFAIRHFENKFAVETLICMYSTYWDESG | -0.267
99 | EASNCFAIRHFENKFAVETLICMYVGRTENQERR | 1.13
100 | EASNCFAIRHFENKFAVETLICMYVTDRLFTVTA | inactive
101 | EASNCFAIRHFENKFAVETLICMYVVCSAMSLGL | inactive
102 | EASNCFAIRHFENKFAVETLICMYVVINSMSFDV | inactive
103 | EASNCFAIRHFENKFAVETLICNAGDAPLGNGV | inactive
104 | EASNCFAIRHFENKFAVETLICNAPGTIL | inactive
105 | EASNCFAIRHFENKFAVETLICNARFDYL | inactive
106 | EASNCFAIRHFENKFAVETLICNCAYHFCVSVWH | inactive

Row | Sequence | amyloid nucleation score
107 | EASNCFAIRHFENKFAVETLICNCCWCPRHRGSC | 8.21
108 | EASNCFAIRHFENKFAVETLICNCEEGCRSVRRA | 8.85
109 | EASNCFAIRHFENKFAVETLICNCPLDWGSRELT | 6.65
110 | EASNCFAIRHFENKFAVETLICNCTKSVYLSTAS | inactive
111 | EASNCFAIRHFENKFAVETLICNCVSVEVIRYLR | 6.99
112 | EASNCFAIRHFENKFAVETLICNCWQPELLYWYG | 6.61
113 | EASNCFAIRHFENKFAVETLICNDARR | inactive
114 | EASNCFAIRHFENKFAVETLICNDGLC | -0.334
115 | EASNCFAIRHFENKFAVETLICNDL | inactive
116 | EASNCFAIRHFENKFAVETLICNDWVW | inactive
117 | EASNCFAIRHFENKFAVETLICNER | inactive
118 | EASNCFAIRHFENKFAVETLICNERWRVHVNTMR | 4.14
119 | EASNCFAIRHFENKFAVETLICNESESS | inactive
120 | EASNCFAIRHFENKFAVETLICNFETFVFENRML | 4.56
121 | EASNCFAIRHFENKFAVETLICNFSDLNMYAFCR | 7.81
